The antibiotic and cytotoxicity screens of Wong et al. (2023)
The list shows a part of the results.

tested on: HSkMC (human skeletal muscle cells); assay: cytotoxicity call (relative viability < 0.9); details: 10 µM

Row | SMILES | cytotoxicity call
1 | C[C@H](CO)N1C[C@H](C)[C@@H](CN(C)S(=O)(=O)c2ccc(F)cc2)Oc2ccc(NC(=O)Cn3cnnn3)cc2C1=O | inactive
2 | C[C@H]1CN([C@@H](C)CO)C(=O)c2cc(NC(=O)Nc3ccc(F)cc3)ccc2O[C@@H]1CN(C)Cc1ccc(Cl)c(Cl)c1 | inactive
3 | C[C@@H]1CCCCO[C@H](CN(C)Cc2ccncc2)[C@@H](C)CN([C@@H](C)CO)C(=O)c2cc(NC(=O)Nc3ccc(F)cc3)ccc2O1 | inactive
4 | Cc1noc(C)c1NC(=O)Nc1ccc2c(c1)C(=O)N([C@H](C)CO)C[C@@H](C)[C@H](CN(C)Cc1ccccc1)OCCCC[C@H](C)O2 | inactive
5 | C[C@@H]1CN([C@H](C)CO)C(=O)Cc2cc(NC(=O)Cn3cnnn3)ccc2O[C@H]1CN(C)Cc1ccc2c(c1)OCO2 | inactive
6 | Cc1noc(C)c1NC(=O)N(C)C[C@H]1OCCCC[C@@H](C)Oc2ccc(NC(=O)Nc3ccccc3)cc2C(=O)N([C@@H](C)CO)C[C@H]1C | inactive
7 | C[C@H](CO)N1C[C@H](C)[C@@H](CN(C)Cc2ccc(-c3ccccc3)cc2)Oc2ccc(NC(=O)Nc3ccc(C(F)(F)F)cc3)cc2C1=O | active
8 | C[C@H]1CN([C@@H](C)CO)C(=O)c2c(c3ccccc3n2C)-c2ccccc2CO[C@H]1CN(C)CC1CCCCC1 | inactive
9 | COc1ccc(-c2coc3cc(O)ccc3c2=O)c(OC)c1OC | inactive
10 | Cc1ccc(S(=O)(=O)Nc2ccc3c(c2)C(=O)N([C@@H](C)CO)C[C@H](C)[C@@H](CN(C)Cc2ccc4c(c2)OCO4)OCCCC[C@@H](C)O3)cc1 | inactive

tested on: S. aureus RN4220; assay: growth inhibition call (relative growth <= 0.2); details: 50 µM

Row | SMILES | growth inhibition call
11 | C[C@H]1CN([C@@H](C)CO)C(=O)c2cccc(NC(=O)c3nc4ccccc4s3)c2O[C@@H]1CN(C)Cc1ccc(C(=O)Nc2ccccc2N)cc1 | inactive
12 | C[C@@H]1CCCCO[C@@H](CN(C)S(=O)(=O)c2ccc(F)cc2)[C@H](C)CN([C@@H](C)CO)C(=O)c2cc(NC(=O)C3CCCCC3)ccc2O1 | inactive
13 | Cc1ccc(S(=O)(=O)Nc2ccc3c(c2)C(=O)N([C@@H](C)CO)C[C@@H](C)[C@H](CN(C)S(=O)(=O)c2ccc(F)cc2)O3)cc1 | inactive
14 | C[C@H](CO)N1C[C@H](C)[C@H](CN(C)C(=O)CN(C)C)Oc2cc(C#CCC3CCCC3)ccc2S1(=O)=O | inactive
15 | c1ccc(Oc2ccncc2)cc1 | inactive
16 | C[C@@H]1CN([C@@H](C)CO)C(=O)Cc2cc(NC(=O)C3CCCCC3)ccc2O[C@H]1CN(C)Cc1ccc(Cl)c(Cl)c1 | inactive
17 | O=C(N[C@H](c1ccc(F)cc1)c1ccc2ccccc2n1)C1CCN(Cc2ccc3ccccc3n2)CC1 | inactive
18 | CC(C)NC(=O)Nc1ccc2c(c1)C(=O)N([C@H](C)CO)C[C@H](C)[C@H](CN(C)C(=O)Nc1ccc(C(F)(F)F)cc1)OCCCC[C@H](C)O2 | inactive
19 | COc1cc([C@@H]2c3cc4c(cc3[C@@H](O[C@@H]3O[C@@H]5CO[C@@H](C)O[C@H]5[C@H](O)[C@H]3O)[C@@H]3COC(=O)[C@@H]23)OCO4)cc(OC)c1O | inactive
20 | C[C@H](CO)N1C[C@H](C)[C@H](CN(C)Cc2cccc(O)c2)OCc2ccccc2-c2c(n(C)c3ccccc23)C1=O | inactive
21 | C[C@@H]1CCCCO[C@H](CN(C)C(=O)c2ccccc2)[C@@H](C)CN([C@H](C)CO)C(=O)c2cc(NC(=O)c3ccccc3)ccc2O1 | inactive
22 | Cc1noc(C)c1S(=O)(=O)N(C)C[C@H]1Oc2ccc(NC(=O)NC(C)C)cc2CC(=O)N([C@@H](C)CO)C[C@@H]1C | inactive
23 | O=C1N[C@@H]2[C@@H]1[C@H]1C=C[C@H]2C1 | inactive
24 | Nc1nnc(SC[C@@H](O)CO)s1 | inactive
25 | C[C@@H]1CN([C@H](C)CO)C(=O)c2cc(NC(=O)Cn3cnnn3)ccc2O[C@@H]1CN(C)CC1CC1 | inactive
26 | COc1ccc(S(=O)(=O)N[C@H]2CC[C@@H](CCNC(=O)CN3CCOCC3)O[C@H]2CO)cc1 | inactive
27 | COc1ccc(S(=O)(=O)N(C)C[C@H]2Oc3c(NC(=O)C4CCOCC4)cccc3C(=O)N([C@@H](C)CO)C[C@@H]2C)cc1 | inactive
28 | CSCC[C@H]1NC(=O)NC1=O | inactive
29 | C[C@H]1CCCCO[C@H](CN(C)S(=O)(=O)c2ccccc2)[C@@H](C)CN([C@@H](C)CO)C(=O)c2cc(NC(=O)Nc3ccccc3)ccc2O1 | inactive
30 | C[C@@H]1CCCCO[C@H](CN(C)CC2CCCCC2)[C@H](C)CN([C@@H](C)CO)C(=O)c2cc(NS(=O)(=O)c3ccc(F)cc3)ccc2O1 | inactive

Row | SMILES | growth inhibition call
31 | COc1ccc(S(=O)(=O)N(C)C[C@@H]2OCCCC[C@H](C)Oc3ccc(NC(=O)c4ccccc4)cc3C(=O)N([C@H](C)CO)C[C@@H]2C)cc1 | inactive
32 | N=C(N)Nc1nc(=O)c2ccccc2s1 | inactive
33 | C[C@@H]1CN([C@H](C)CO)C(=O)c2cc(NC(=O)CCN3CCOCC3)ccc2O[C@H]1CN(C)C(=O)Nc1ccccc1 | inactive
34 | COc1ccc(S(=O)(=O)N(C)C[C@@H]2OCCCC[C@H](C)Oc3ccc(NC(=O)C4CCCCC4)cc3C(=O)N([C@H](C)CO)C[C@H]2C)cc1 | inactive
35 | C[C@H]1CN([C@@H](C)CO)C(=O)c2c(c3ccccc3n2C)-c2ccccc2CO[C@@H]1CN(C)S(C)(=O)=O | inactive
36 | C=CCN1C(=O)[C@]2(O[C@H](CCn3cc([C@H](O)c4ccccc4)nn3)[C@@H]([Si](C)(C)c3ccc(OC)cc3)[C@@H]2C)c2cc(N3C(=O)c4cccc5cccc3c45)ccc21 | inactive
37 | C[C@@H]1CN([C@@H](C)CO)C(=O)c2c(c3ccccc3n2C)-c2ccccc2CO[C@H]1CN(C)Cc1cccc(C(F)(F)F)c1 | inactive
38 | C[C@H]1CN([C@@H](C)CO)C(=O)c2cccc(NC(=O)NC3CCCCC3)c2O[C@H]1CN(C)Cc1ccc(C(=O)Nc2ccccc2N)cc1 | inactive
39 | C[C@@H]1CN([C@H](C)CO)C(=O)c2cc(NC(=O)NC3CCCCC3)ccc2O[C@@H](C)CCCCO[C@@H]1CN(C)Cc1ccc(Cl)c(Cl)c1 | inactive
40 | Cc1noc(C)c1NC(=O)Nc1ccc2c(c1)C(=O)N([C@H](C)CO)C[C@@H](C)[C@H](CN(C)Cc1ccc(C(F)(F)F)cc1)OCCCC[C@@H](C)O2 | inactive
41 | C[C@H](CO)N1C[C@H](C)[C@@H](CN(C)S(=O)(=O)c2ccc(F)cc2)Oc2ccc(NC(=O)Cn3cnnn3)cc2C1=O | inactive
42 | C[C@H]1CN([C@@H](C)CO)C(=O)c2cc(NC(=O)Nc3ccc(F)cc3)ccc2O[C@@H]1CN(C)Cc1ccc(Cl)c(Cl)c1 | inactive
43 | C[C@@H]1CCCCO[C@H](CN(C)Cc2ccncc2)[C@@H](C)CN([C@@H](C)CO)C(=O)c2cc(NC(=O)Nc3ccc(F)cc3)ccc2O1 | inactive
44 | Cc1noc(C)c1NC(=O)Nc1ccc2c(c1)C(=O)N([C@H](C)CO)C[C@@H](C)[C@H](CN(C)Cc1ccccc1)OCCCC[C@H](C)O2 | inactive
45 | C[C@@H]1CN([C@H](C)CO)C(=O)Cc2cc(NC(=O)Cn3cnnn3)ccc2O[C@H]1CN(C)Cc1ccc2c(c1)OCO2 | inactive
46 | Cc1noc(C)c1NC(=O)N(C)C[C@H]1OCCCC[C@@H](C)Oc2ccc(NC(=O)Nc3ccccc3)cc2C(=O)N([C@@H](C)CO)C[C@H]1C | inactive
47 | C[C@H](CO)N1C[C@H](C)[C@@H](CN(C)Cc2ccc(-c3ccccc3)cc2)Oc2ccc(NC(=O)Nc3ccc(C(F)(F)F)cc3)cc2C1=O | inactive
48 | C[C@H]1CN([C@@H](C)CO)C(=O)c2c(c3ccccc3n2C)-c2ccccc2CO[C@H]1CN(C)CC1CCCCC1 | inactive
49 | COc1ccc(-c2coc3cc(O)ccc3c2=O)c(OC)c1OC | inactive
50 | Cc1ccc(S(=O)(=O)Nc2ccc3c(c2)C(=O)N([C@@H](C)CO)C[C@H](C)[C@@H](CN(C)Cc2ccc4c(c2)OCO4)OCCCC[C@@H](C)O3)cc1 | inactive
